Assay results from PubChem BioAssay AID504832 (National Center for Advancing Translational Sciences (NCATS), 2011).
The campaign covered roughly 310,000 compounds. About 18,000 (5.8%) were called active. Inconclusive results, whose numbers are uncertain, are shown with a selection of clear calls. Calls follow the shape of the dose curve; as a rule, active = well fitted inhibition curve with a large enough effect; inconclusive = small, poorly fitted or top-dose-only effect, or another doubt; inactive = no such curve, though single readings can be large or run the other way. Potencies of inconclusive entries are left out as doubtful fits.

Test: Primary qHTS for delayed death inhibitors of the malarial parasite plastid, 48 hour incubation
Conditions: P. falciparum luciferase growth in erythrocytes; series mostly up to 28.7 µM
Summary of the method: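 In quantitative HTS format, infected erythrocytes bearing luciferase-reporter parasites were treated for a single generation at 37 C. Luminescence after adding detection reagent served as the growth measure.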
Potency is read from the fitted curve at half-maximal effect; tags tell the direction and shape of the fitted curve.

Structure (SMILES) | Potency
Cc1ccccc1C(=O)/C=C1/c2ccccc2CC(C)(C)N1C | inconclusive [inhibitor, single point]
Cc1cc(N/N=C/c2cccc(Cl)c2)nc(-n2nc(C)cc2C)n1 | active: 1.17 µM
Cc1noc(/C=C/c2ccco2)c1S(=O)(=O)N1CCC(C(=O)N2c3ccccc3CC2C)CC1 (stereo not given) | inconclusive [inhibitor, single point]
CC(=O)c1cccc(Nc2nc(-c3sc(N)nc3C)cs2)c1 | inconclusive [inhibitor, single point]
COCCCNC(=O)/C(C#N)=C/c1c(N2CCN(c3ccc(OC)cc3)CC2)nc2c(C)cccn2c1=O | inconclusive [inhibitor, partial curve]
CCOC(=O)Cc1ccc(NCc2ccc(Cl)cc2)cc1 | inactive
O=C(Nc1ccccc1)N1CCc2c([nH]c3ccccc23)C1C(F)(F)F (stereo not given) | inconclusive [inhibitor, single point]
COc1ccc(C2c3c(ncn(CCCO)c3=N)Oc3ccc4ccccc4c32)cc1OC (stereo not given) | active: 13.1 µM
O=C(NC(=S)Nc1ccc(Cl)cn1)C(c1ccccc1)c1ccccc1 | inconclusive [inhibitor, full curve, poor fit]
COc1ccc(/C=C(\NC(=O)c2ccco2)C(=O)N2CCOCC2)cc1 | inactive
COc1ccc(-n2cnc3ccccc3c2=O)c([N+](=O)[O-])c1 | inactive
CN1CCN(CC(=O)N(C)c2nc(-c3ccccc3)cs2)CC1 | inactive
CCOC(=O)c1sc(=S)n(-c2cccc(C(F)(F)F)c2)c1SC | inconclusive [inhibitor, partial curve, poor fit]
COc1ccc(CN(CC(=O)NC2CCCCC2)C(=O)CCC(=O)Nc2nccs2)cc1 | inconclusive [inhibitor, partial curve, poor fit]
COc1ccc(-c2nc3cc(C)ccn3c2NC(=O)c2ccccc2OC)cc1 | inconclusive [inhibitor, single point]
COC(=O)CC1C(=O)NCCN1C(=O)CSc1nnc(Nc2ccc(OC)cc2)s1 (stereo not given) | inconclusive [inhibitor, partial curve, poor fit]
Cc1cc(C)c2nc(NNC(=O)c3cc(-c4cccs4)nc4ccccc34)sc2c1 | active: 1.85 µM
O=C(CSc1nc2ccccc2nc1N1CCCCC1)N1CCN(c2ccccc2)CC1 | inconclusive [inhibitor, partial curve, poor fit]
Cc1ccccc1C(=O)N1CCN(c2ccc(NC(=O)c3cccc(OC(C)C)c3)cc2)CC1 | inconclusive [inhibitor, partial curve, poor fit]
CC/C(=N\NC(=O)c1ccccc1Cl)c1c(O)n(C2CCCCC2)c(=O)[nH]c1=O | inactive
CSC(SC)=C(C#N)C(=O)c1ccccc1 | inactive
O=C(O)c1cc(-n2[nH]c(=O)c3ccccc3c2=O)ccc1Cl | inactive
O=C(O)c1cc2c(cc1Cl)N1CCCCCC1=NS2(=O)=O | inactive
COC(=O)c1c(NC(NC(=O)C(C)C)C(Cl)(Cl)Cl)sc2c1CCCC2 (stereo not given) | inconclusive [inhibitor, single point]

Structure (SMILES) | Potency
CC(=O)Nc1ccc(OCC(=O)N2CCC(Cc3ccccc3)CC2)cc1 | inactive
CCC1C(c2ccccc2)N(C)C(c2ccccc2)CC1(O)c1ccccc1 (stereo not given) | inconclusive [inhibitor, single point]
CC(=O)NCc1ccc2[nH]c(C)cc2c1 | inactive
O=C1CN(C(=O)CSc2nc3cc(Cl)ccc3c(=O)n2Cc2ccccc2)c2ccccc2N1 | active: 3.29 µM
Cn1nc(C(F)(F)F)c(-c2ccccc2)c1NC(=O)c1nccnc1C(=O)O | inconclusive [inhibitor, partial curve, poor fit]
COc1ccccc1N(C(=O)c1ccncc1)c1nc(-c2ccc([N+](=O)[O-])cc2)cs1 | active: 9.28 µM
CCCOc1ccc(C(=O)C(CN2CCOCC2)c2ccccc2)cc1 (stereo not given) | inconclusive [inhibitor, single point]
COc1ccc(-c2cc(C(F)F)n3ncc(C(=O)Nc4cccc(S(=O)(=O)N5CCOCC5)c4)c3n2)cc1 | inconclusive [inhibitor, partial curve]
COc1ccc(Nc2c([N+](=O)[O-])ccc3c2=NC2(CCCCC2)N=3)cc1 | inconclusive [inhibitor, single point]
Cc1ccc(C(=O)OCC(=O)NCc2cccc(Cl)c2)cc1S(=O)(=O)N1CCCCC1 | inconclusive [inhibitor, single point]
O=C1N=C(N2CCOCC2)S/C1=C/c1ccc(-c2ccccc2Cl)o1 | inconclusive [inhibitor, partial curve]
Cc1cc(C(=O)CN2CCCC2)c(C)n1-c1ccc(F)cc1 | inconclusive [inhibitor, single point]
Cc1cc(NC(=O)C(C)SCC(=O)OCc2ccc(Cl)cc2Cl)no1 (stereo not given) | inconclusive [inhibitor, single point]
CC(=O)Nc1ccc(C(=O)Nc2nc(-c3ccccn3)cs2)cc1 | inconclusive [inhibitor, single point]
COc1ccc(N(CC(=O)NC2CCCCC2)C(=O)CCCC(=O)Nc2ccccn2)cc1 | inconclusive [inhibitor, partial curve, poor fit]
Nc1c(C(=O)C2CC2)sc2nc(-c3ccccc3)cc(C(F)(F)F)c12 | inactive
CCN1C(=O)[C@H]2[C@@H](c3ccc(C)cc3)N3C(=O)N(c4ccc(OC)cc4)C(=O)[C@@]3(C)[C@H]2C1=O | inconclusive [inhibitor, partial curve, poor fit]
CCN1C(=Nc2ccc(Cl)cc2)SC/C1=C\C(=O)OC | inactive
N#CC1=C(SCC(=O)NC2CCCCC2)NC(=O)CC1c1ccco1 (stereo not given) | inactive
CN1CC(c2ccccn2)C2(SC(=S)N(Cc3ccccc3)C2=O)C12C(=O)Nc1ccccc12 (stereo not given) | inconclusive [inhibitor, single point]
COc1ccc(CN2CCCC(C(=O)c3ccc(Cl)cc3)C2)cc1Cn1cccn1 (stereo not given) | inconclusive [inhibitor, partial curve, poor fit]
O=[N+]([O-])c1ccc(O)c(/C=N\N=C2c3ccccc3-c3ccccc32)c1 | inconclusive [inhibitor, single point]
Cc1c(Cl)c([N+](=O)[O-])nn1CCCC(=O)NCCc1ccccc1 | inactive
CC(=O)N1CC2(C)CN(C(C)=O)CC(C)(C1)C2=O | inconclusive [inhibitor, single point]

Structure (SMILES) | Potency
NC(=O)NOCc1ccccc1F | inactive
Cc1ccc(-c2csc3ncnc(-n4nnc5ccccc54)c23)cc1 | inactive
CCCc1cc(=O)oc2cc(C)cc(OC(C)C(=O)NCc3ccccn3)c12 (stereo not given) | active: 2.62 µM
CCC(C)C(=O)Nc1nnc(SCC(=O)N2C(C)CCCC2C)s1 (stereo not given) | inconclusive [inhibitor, partial curve]
CCOC(=O)Cn1c(=O)oc2cc(S(=O)(=O)Nc3cc(OCC)ccc3OCC)ccc21 | inconclusive [inhibitor, partial curve, poor fit]
Cc1cc(C)nc(Oc2ccc(Br)cc2)n1 | inactive
Cc1ccc(S(=O)(=O)NCC(=O)OCc2cc(=O)oc3cc(C)ccc23)cc1 | inactive
COc1ccc(OC)c(Nc2nc(-c3sc(C)nc3C)cs2)c1 | active: 14.7 µM
COc1cccc([C@@H]2Oc3ccc(OC)cc3C(=O)[C@H]2O)c1 | inactive
Cc1cccc(Nc2ccccc2C(=O)OCC(=O)NCc2ccco2)c1C | inconclusive [inhibitor, partial curve]
O=C(Nc1cc(S(=O)(=O)N2CCCCC2)ccc1N1CCCCC1)C1CC1 | active: 10.4 µM
COC(=O)c1ccc(CNC(=O)CCNC(=O)c2ccco2)cc1 | inactive
Oc1ccc(Cl)cc1CNc1nccs1 | inconclusive [inhibitor, single point]
COc1ccccc1C(=O)COC(=O)Cn1nc(C)c([N+](=O)[O-])c1C | inconclusive [inhibitor, single point]
Cc1cc(S(=O)(=O)Nc2ccc(C(=O)NCC(c3ccco3)N(C)C)cc2)ccc1F (stereo not given) | inconclusive [inhibitor, single point]
Cc1cccc(C)c1OCc1cc(C(=O)NCC2CC2)no1 | inconclusive [inhibitor, single point]
CC(=O)N1CCc2cc(S(=O)(=O)NC(CC(C)C)C(=O)Nc3cc(C)ccn3)ccc21 (stereo not given) | inconclusive [inhibitor, single point]
Cc1cc(SCC(=O)c2cccs2)nc2c(C)cccc12 | inconclusive [inhibitor, single point]
COc1cc(/C=C2\N=C(c3ccccc3)NNC2=O)cc(OC)c1OC | inactive
Cc1cccc(N(C(=O)c2snc(C(N)=O)c2N)C(C(=O)NCC2CCCO2)c2ccc(N(C)C)cc2)c1 (stereo not given) | active: 13.1 µM
NNC(=O)c1sc(-c2ccccc2)cc1N | inconclusive [inhibitor, partial curve, poor fit]
COc1ccc(C(C(=O)NCCC(C)C)N(CCN2CCOCC2)C(=O)Cn2nnc3ccccc32)c(OC)c1 (stereo not given) | inconclusive [inhibitor, partial curve]
